Reference: PubChem BioAssay AID686978 (National Center for Advancing Translational Sciences (NCATS), 2013)
Hit rate of the full screen: of about 420,000 compounds, about 64,000 (15%) were called active. Inconclusive means that the source gave no clear call. Such entries were picked first, then a sample of the others. Calls come from the whole dose curve; as a rule, active = well fitted inhibition curve with a large enough effect; inconclusive = small, poorly fitted or top-dose-only effect; inactive = flat fitted curve, though single readings scatter. Potencies of inconclusive entries are left out as doubtful fits.

test: qHTS for Inhibitors of human tyrosyl-DNA phosphodiesterase 1 (TDP1): qHTS in cells in absence of CPT; settings: DT40 Tdp1-/- hTDP1 cells, no CPT, ATP luminescence, 48 h; activity change, negative = growth inhibition: at 46.2 µM (top of the series) unless noted; note: nearly all actives have a fitted effect of over 55% in size
Outline: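 Chicken DT40 Tdp1-/- cells complemented with human TDP1, screened without camptothecin (DMSO vehicle only), 400 cells/well. Compounds pin-transferred, cells incubated at 37 °C for at least 48 hr. Growth read as ATP-dependent luminescence (CellTiter-Glo, 30 min at RT).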
% is set by controls: 0 for no effect and ±100 for the full control effect; potency is the fitted concentration of half-maximal effect; tags give direction and shape of the fitted curve.

With `OCCN1CCN(CCOc2ccccc2-c2ccccc2)CC1` as the molecule, how does the Potency read?
Its Potency is inconclusive [inhibitor, single point].

Which Potency does the source give for `C[S+](C)CCC(N)C(=O)O` (stereo unspecified) here?
The Potency was “inactive”.

With `CCOc1ccc(/C=C/C(=O)c2ccc(-c3ccccc3)cc2)cc1` as the molecule, how does the activity change, negative = growth inhibition read?
Its activity change, negative = growth inhibition is inconclusive: -31% [inhibitor].

For `Cc1oc(-c2cccc(Cl)c2)nc1CN(C)C1CCOC1` (stereo unspecified), which activity change, negative = growth inhibition is on record?
The activity change, negative = growth inhibition was inconclusive: -30.1% [inhibitor].

For `CN1CCN(C(=O)C2=C[C@H](c3ccc(C(F)(F)F)cc3)C[C@H](OCc3ccc(CO)cc3)O2)CC1`, which Potency is on record?
The Potency was inconclusive [inhibitor, single point].

For `COc1nc(=O)n(C2CCCO2)cc1C` (stereo unspecified), which Potency is on record?
The Potency was “inactive”.

For `CCN(CC)S(=O)(=O)c1cc(-c2nnc(-c3ccc(Br)cc3)o2)ccc1Br`, which Potency is on record?
The Potency was active: 9.2 µM.

With `COc1ccc(/C=C/C(=O)/C=C/c2ccc(OC)cc2OC)c(OC)c1` as the molecule, how does the Potency read?
Its Potency is inconclusive [inhibitor, single point].

Which Potency does the source give for `COC(=O)c1cc2sc(Cl)cc2n1CC(=O)Nc1cccc(SC)c1` here?
Its Potency is “inactive”.

Which Potency does the source give for `Cc1nc2scc(-c3ccc(Cl)cc3)c2c(=O)o1` here?
Its Potency is “inactive”.

With `O=C(CSc1nc2ccccc2nc1Cc1ccc(Cl)cc1)N1CCN(c2ccccc2)CC1` as the molecule, how does the Potency read?
The Potency was inconclusive [inhibitor, single point].

With `O=C1NC(Cc2ccc(O)cc2)c2nc3ccc(Br)cc3c(=O)n2-c2ncccc21` (stereo unspecified) as the molecule, how does the Potency read?
The Potency was inconclusive [inhibitor, single point].

For `CCCc1cc(C(=O)OCC(=O)NCCc2ccccc2)sc1C`, which Potency is on record?
Its Potency is “inactive”.

Which Potency does the source give for `Cn1c(=O)c2cc(NC(=O)Cc3ccccc3F)ccc2n1-c1ccc(C(C)(C)C)cc1` here?
The Potency was active: 16.4 µM.

Which Potency does the source give for `CCOC(=O)C(C)Sc1nc2ccccc2c(=O)n1CC` (stereo unspecified) here?
The Potency was inconclusive [inhibitor, single point].

Which Potency does the source give for `Cc1ccccc1NC(=O)c1nc(S(=O)(=O)Cc2ccccc2F)ncc1Cl` here?
The Potency was active: 5.01 µM.

Which Potency does the source give for `CCOC(=O)C1(Cc2ccc(O)cc2)NC(c2ccccc2F)C2C(=O)N(C)C(=O)C21` (stereo unspecified) here?
The Potency was active: 20.6 µM.

For `O=C(Nc1cccc(S(=O)(=O)N2CCCCC2)c1)C1CCCC1`, which Potency is on record?
Its Potency is inconclusive [inhibitor, single point].

For `C=CCN1C=CC(=O)[C@@H](OC(=O)Nc2ccc(Br)cc2)[C@H]1c1ccccc1Br`, which Potency is on record?
The Potency was inconclusive [inhibitor, single point].

For `CCc1ccccc1N(C)C(=O)C1CCCN(c2ncnc3c2nc2n3CCCCC2)C1` (stereo unspecified), which Potency is on record?
The Potency was active: 4.11 µM.

For `Cc1ccc(-n2ncc(C(=O)NCc3ccco3)c2C2CCN(C(=O)OC(C)(C)C)CC2)cc1C`, which Potency is on record?
The Potency was inconclusive [inhibitor, single point].

Which Potency does the source give for `Cc1nn(-c2ccccc2)c2nc(C(Cl)(Cl)Cl)[nH]c(=O)c12` here?
The Potency was inconclusive [inhibitor, single point].

With `Cc1ccc(Nc2ccc(C(N)=O)cc2[N+](=O)[O-])cc1C` as the molecule, how does the Potency read?
Its Potency is inconclusive [inhibitor, single point].

With `O=C(C1=C(O)C(=O)N(CC2CCCO2)C1c1ccc(Cl)cc1Cl)c1ccco1` (stereo unspecified) as the molecule, how does the Potency read?
The Potency was inconclusive [inhibitor, partial curve, poor fit].

With `Cc1cccc(N(CC(=O)N/N=C/c2ccccc2C(=O)O)S(C)(=O)=O)c1C` as the molecule, how does the Potency read?
The Potency was “inactive”.

For `Cc1nc(SCc2ccc(Cl)c(Cl)c2)n[nH]1`, which Potency is on record?
Its Potency is inconclusive [inhibitor, single point].

Which Potency does the source give for `Cc1cc(N2CCCCC2)nc(SCC(=O)c2ccccc2)n1` here?
Its Potency is active: 11.6 µM.

For `Cc1cc(C)cc(Nc2nc3c(S(=O)(=O)c4ccccc4)nnn3c3ccccc23)c1`, which Potency is on record?
The Potency was inconclusive [inhibitor, single point].

For `CC(=O)c1c(C)[nH]c(C(=O)N(CCc2ccccc2)Cc2ccccc2)c1C`, which Potency is on record?
The Potency was inconclusive [inhibitor, partial curve].

With `COc1cccc(Cn2c(=O)c(-c3ccccc3)nc3cncnc32)c1` as the molecule, how does the Potency read?
Its Potency is “inactive”.

Which Potency does the source give for `Nc1ccc2c(c1)nc(Cc1ccccc1)n2CCO` here?
Its Potency is “inactive”.

For `CN1C(=O)/C(=C/c2ccccc2Cl)Sc2ccc(C(=O)N3CCCC3)cc21`, which Potency is on record?
Its Potency is active: 25.9 µM.

For `Cn1ccc2c(N3CCCCC3)cc3c(c21)C1CCC3C1` (stereo unspecified), which Potency is on record?
Its Potency is inconclusive [inhibitor, single point].

With `Cc1ccc(N=c2c([N+](=O)[O-])nn(-c3ccc4c(c3)OCCO4)n2O)cc1F` as the molecule, how does the Potency read?
Its Potency is inconclusive [inhibitor, partial curve].

For `CCOC(=O)c1c[nH]c2c(C)cc(C)cc2c1=O`, which Potency is on record?
The Potency was inconclusive [inhibitor, partial curve].

For `Cc1ccccc1-c1ccc(Nc2ccc(N3CCOCC3)cc2)nn1`, which Potency is on record?
Its Potency is inconclusive [inhibitor, single point].

With `O=C(N/N=C/c1c(O)n(Cc2ccccc2)c(=O)c2ccccc12)c1cccnc1` as the molecule, how does the Potency read?
The Potency was active: 9.2 µM.

Which Potency does the source give for `CC(=O)Nc1ccc(-c2csc(NC(=O)CCNC(=O)c3ccco3)n2)cc1` here?
The Potency was inconclusive [inhibitor, single point].

With `CCn1cc(C(=O)NCCCN(C)c2ccccc2)c(=O)c2cc(S(=O)(=O)N(C)C)ccc21` as the molecule, how does the Potency read?
Its Potency is inconclusive [inhibitor, single point].

Which Potency does the source give for `CCc1c(C)c2cc3c(c(C)c2oc1=O)OCN(CCc1ccccc1F)C3` here?
The Potency was active: 16.4 µM.

For `Cc1cc(NC(=O)C(C)SCC(=O)Nc2ccc(SC(F)F)cc2)no1` (stereo unspecified), which Potency is on record?
The Potency was inconclusive [inhibitor, single point].

With `Cc1c(C(=O)Nc2cc(F)ccc2F)sc2nc(-c3ccc(F)cc3)cn12` as the molecule, how does the Potency read?
Its Potency is inconclusive [inhibitor, partial curve].

With `COc1ccc(OC)c(NS(=O)(=O)c2ccc(NC(=O)C3COc4ccccc4O3)cc2)c1` (stereo unspecified) as the molecule, how does the Potency read?
The Potency was active: 18.4 µM.

For `CC(C)(C)NS(=O)(=O)c1ccc(NC(=O)C(Sc2ccccc2)c2ccccc2)cc1` (stereo unspecified), which Potency is on record?
The Potency was inconclusive [inhibitor, single point].

Which Potency does the source give for `CCCCCN(C(=O)CN1CCC(Cc2ccccc2)CC1)c1c(N)n(CCCC)c(=O)[nH]c1=O` here?
Its Potency is inconclusive [inhibitor, partial curve, poor fit].

With `COc1cc2nc(CN(C)Cc3nc4ccccc4c(=O)[nH]3)[nH]c(=O)c2cc1OC` as the molecule, how does the Potency read?
The Potency was active: 12.6 µM.

Which Potency does the source give for `COc1ccccc1N1CCN(C(c2cccs2)C(C)NC(=O)c2cccnc2)CC1` (stereo unspecified) here?
Its Potency is inconclusive [inhibitor, single point].

With `O=C1N/C(=C/c2cccn2-c2ccccc2)C(=O)N1c1cccc(Cl)c1` as the molecule, how does the Potency read?
Its Potency is inconclusive [inhibitor, single point].

With `CC1=NN(c2ccccc2)C(=O)/C1=C\C=C\c1ccccc1` as the molecule, how does the Potency read?
The Potency was active: 7.31 µM.

Which Potency does the source give for `COc1ccc(C)cc1N(C(=O)COc1ccccc1)c1nc2ccccc2s1` here?
Its Potency is inconclusive [inhibitor, single point].

Which Potency does the source give for `Cc1ccc2nc(NNC(=O)c3ccc4c(c3)OCCO4)sc2c1` here?
Its Potency is inconclusive [inhibitor, single point].

With `CCOC(=O)c1cn[nH]c1NC(=S)Nc1ccccc1` as the molecule, how does the Potency read?
The Potency was inconclusive [inhibitor, partial curve].

With `O=C(/C=C/c1ccc(Cl)cc1)NCc1cccs1` as the molecule, how does the Potency read?
Its Potency is inconclusive [inhibitor, partial curve].

With `O=C1C(=C2SCCCS2)CC/C1=C\c1ccc(F)cc1` as the molecule, how does the Potency read?
Its Potency is inconclusive [inhibitor, single point].

For `COC(=O)C1=CN(Cc2ccc(F)cc2)C=C(C(=O)OC)C1c1ccc(O)c(OC)c1`, which Potency is on record?
The Potency was inconclusive [inhibitor, single point].

Which Potency does the source give for `COc1cccc(Nc2nc(N)nc(CCl)n2)c1` here?
The Potency was inconclusive [inhibitor, single point].

For `O=C(O)c1ccccc1N=Nc1ccc(O)cc1`, which Potency is on record?
Its Potency is active: 14.6 µM.

Which Potency does the source give for `CC(C)(C)N(Cc1ccccc1)C(=O)COC(=O)C1CCN(c2ccc(C(F)(F)F)cn2)CC1` here?
The Potency was active: 14.6 µM.

Which Potency does the source give for `Cc1ccc(/C=C/c2nnc(-c3ccccc3)o2)cc1` here?
The Potency was “inactive”.

With `CCc1ccc(C2C(C#N)=C(N)Oc3cc(N)ccc32)cc1` (stereo unspecified) as the molecule, how does the Potency read?
Its Potency is inconclusive [inhibitor, single point].

With `COc1ccc(C(C[N+](=O)[O-])c2c(-c3ccccc3)cc3ccccn23)cc1` (stereo unspecified) as the molecule, how does the Potency read?
The Potency was active: 18.4 µM.

For `CC(=O)Nc1ccc(Nc2cc(C(C)C)nc3c(-c4ccccc4)c(C)nn23)cc1`, which Potency is on record?
The Potency was inconclusive [inhibitor, single point].

Which Potency does the source give for `COc1ccc(NC2=C(c3ccc(C(F)(F)F)cc3)C(=O)c3ccccc32)cc1` here?
Its Potency is inconclusive [inhibitor, single point].

Which Potency does the source give for `C=CCn1c(SCC(=O)Nc2ccc(C)cc2C)nnc1-c1cccnc1` here?
The Potency was “inactive”.

Which Potency does the source give for `COc1cccc(NC(=O)C2CCC(CNS(=O)(=O)c3cccc4cccnc34)CC2)c1` (stereo unspecified) here?
Its Potency is inconclusive [inhibitor, single point].

For `CC(=O)Nc1ccc(S(=O)(=O)N(C)CC(=O)OCC(=O)c2cc(C)n(-c3ccc4c(c3)OCO4)c2C)cc1`, which activity change, negative = growth inhibition is on record?
Its activity change, negative = growth inhibition is inconclusive: -30.6% [inhibitor].

With `OCCN(CCO)c1ncnc2c1sc1nc(N3CCOCC3)c3c(c12)CCCC3` as the molecule, how does the Potency read?
Its Potency is active: 18.4 µM.

With `Cc1nc(S(=O)(=O)N(C)Cc2ccccc2)c(C#N)c(C)c1Cl` as the molecule, how does the activity change, negative = growth inhibition read?
The activity change, negative = growth inhibition was inconclusive: -34.6% [inhibitor].

With `CN(C)c1ncc2nc(-c3ccc(Cl)cc3)c(=O)n(C[C@H]3CCCO3)c2n1` as the molecule, how does the Potency read?
Its Potency is “inactive”.

With `COc1ccccc1C(=O)Nc1c(C(=O)NC(C)(C)C)oc2ccccc12` as the molecule, how does the Potency read?
The Potency was active: 23.1 µM.

For `COc1cc(/C=N/n2cc(-c3ccccc3)[nH]c2=S)cc(OC)c1O`, which Potency is on record?
Its Potency is inconclusive [inhibitor, single point].
